# Test results taken from the supplement of paper PMC9446081.
# The whole screen tested about 39,000 compounds, of which about 220 (0.56%) showed activity. The list shows a part of the results.
# System: Escherichia coli K-12 BW25113
# Assay: relative growth (OD600 normalised to plate interquartile mean) (fraction); higher = less growth inhibition, active = 0.2 or less
# Details: 50 µM; LB; incubation time: overnight (16-24 h)
# 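Further: static incubation at 37 °C against the wild-type strain, values averaged over two biological replicates.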
row,Structure (SMILES),relative growth
1,Cc1noc(C)c1NC(=O)Nc1cccc2c1O[C@H](CN(C)C(=O)Nc1cccc3ccccc13)[C@@H](C)CN([C@H](C)CO)C2=O,inactive: 0.969
2,C[C@H]1CN([C@@H](C)CO)C(=O)c2cccc(NS(=O)(=O)c3cccs3)c2O[C@@H]1CN(C)CC1CC1,inactive: 0.991
3,C[C@H](CO)N1C[C@H](C)[C@H](CN(C)S(=O)(=O)c2cccc(F)c2)Oc2ncc(C#CC(C)(C)O)cc2C1=O,inactive: 1.01
4,CN1CCN(C(=O)C[C@@H]2C[C@H]3c4cc(NC(=O)c5ccc6c(c5)OCO6)ccc4O[C@H]3[C@@H](CO)O2)CC1,inactive: 0.981
5,COc1ccc(S(=O)(=O)Nc2ccc3c(c2)CC(=O)N([C@H](C)CO)C[C@@H](C)[C@H](CN(C)S(=O)(=O)c2c(C)noc2C)O3)cc1,inactive: 1.02
6,Cc1ccc(S(=O)(=O)Nc2ccc3c(c2)C(=O)N([C@H](C)CO)C[C@@H](C)[C@@H](CN(C)C(=O)Nc2ccccc2)OCCCC[C@@H](C)O3)cc1,inactive: 1.01
7,CS(=O)(=O)N[C@@H](C(=O)O)c1ccccc1,inactive: 1.06
8,COc1ccc(NC(=O)Nc2ccc3c(c2)C(=O)N([C@H](C)CO)C[C@H](C)[C@H](CN(C)C(=O)Nc2ccc(C(F)(F)F)cc2)O3)cc1,inactive: 0.985
9,C[C@@H]1CN([C@@H](C)CO)C(=O)Cc2cc(NC(=O)Cn3cnnn3)ccc2O[C@@H]1CN(C)Cc1ccccc1,inactive: 1.02
10,C/C=C/c1ccc2c(c1)O[C@H](CN(C)S(=O)(=O)c1ccccc1)[C@@H](C)CN([C@H](C)CO)S2(=O)=O,inactive: 0.985
11,C[C@H](CO)N1C[C@H](C)[C@H](CN(C)C(=O)CCCN(C)C)OCCCC[C@H](C)Oc2ccc(NC(=O)Nc3ccc(F)cc3)cc2C1=O,inactive: 0.989
12,C[C@@H]1CCCCO[C@@H](CN(C)Cc2ccc(Cl)c(Cl)c2)[C@H](C)CN([C@@H](C)CO)C(=O)c2cc(NS(=O)(=O)c3cn(C)cn3)ccc2O1,inactive: 0.975
13,C[C@H](CO)N1C[C@H](C)[C@H](CN(C)Cc2ccc(C(=O)Nc3ccccc3N)cc2)OCCCC[C@H](C)Oc2ccc(N(C)C)cc2C1=O,inactive: 0.982
14,CCCCN1CC=C[C@@]23O[C@@H]4C=CCCOC(=O)[C@@H]4[C@H]2C(=O)N([C@@H](C)CO)[C@@H]3C1=O,inactive: 1.03
15,C[C@@H]1CN([C@H](C)CO)C(=O)c2cc(NC(=O)Cc3cn(C)c4ccccc34)ccc2O[C@H]1CN(C)S(=O)(=O)c1cn(C)cn1,inactive: 0.991
16,Cc1noc(C)c1S(=O)(=O)Nc1ccc2c(c1)C(=O)N([C@H](C)CO)C[C@@H](C)[C@H](CN(C)S(=O)(=O)c1ccccc1)O2,inactive: 1
17,C[C@@H](NS(=O)(=O)C1CN(C(=O)OCc2ccccc2)C1)C(N)=O,inactive: 1.02
18,C[C@H]1CN([C@@H](C)CO)C(=O)Cc2cc(NC(=O)Nc3ccccc3)ccc2O[C@@H]1CN(C)C(=O)Nc1ccc(C(F)(F)F)cc1,inactive: 0.998
19,COc1ccc(S(=O)(=O)N(C)C[C@@H]2OCCCC[C@@H](C)Oc3ccc(NC(=O)Nc4ccccc4)cc3C(=O)N([C@H](C)CO)C[C@H]2C)cc1,inactive: 1.02

row,Structure (SMILES),relative growth
1,C[C@@H]1CCCCO[C@H](CN(C)S(=O)(=O)c2cccs2)[C@@H](C)CN([C@@H](C)CO)C(=O)c2cc(NC(=O)Nc3ccc4c(c3)OCO4)ccc2O1,inactive: 0.963
2,C[C@H](CO)N1C[C@H](C)[C@H](CN(C)Cc2ccc(C(=O)Nc3ccccc3N)cc2)Oc2ccc(NS(=O)(=O)c3ccc(Cl)cc3)cc2C1=O,inactive: 0.984
3,COc1ccc(cc1)CN1C[C@]2(CN(C2)C(=O)C2CCOCC2)c2c(n(c3cc(ccc23)OC)C)[C@H]1CO,inactive: 0.993
4,NC[C@H]1O[C@H](O[C@H]2[C@H](O)[C@@H](O[C@H]3O[C@H](CO)[C@@H](O)[C@H](N)[C@H]3O)[C@H](N)C[C@@H]2N)[C@H](N)[C@@H](O)[C@@H]1O,active: 0.0328
5,C[C@H](CO)N1C[C@H](C)[C@H](CN(C)S(=O)(=O)c2cccc(F)c2)Oc2ncc(Br)cc2C1=O,inactive: 0.993
6,COc1ccc2c3c(n(c2c1)C)[C@@H](CO)N(C[C@]13CCN(CC1)Cc1cccc(c1)F)C(=O)Nc1ccc(cc1)F,inactive: 0.961
7,Cc1ccc2ncc(-c3ccc4cc(C)ccc4n3)cc2c1,inactive: 1.03
8,CN1CCC(Nc2nc(Nc3ccc(Oc4ccccc4)cc3)c3c(O)ncc(Br)c3n2)CC1,inactive: 1.04
9,C=CC(C1=CC(=O)C(OC)=CC1=O)c1ccc(OC)cc1 (configuration not stated),inactive: 1.15
10,CN(C)CCCNC(=O)C[C@H]1CC[C@@H]2[C@H](COC[C@@H](O)CN2S(=O)(=O)c2ccc(F)cc2)O1,inactive: 0.994
11,N#Cc1cccc2ccsc12,inactive: 0.955
12,C[C@@H]1CCCCO[C@@H](CN(C)Cc2ccc(C(=O)O)cc2)[C@@H](C)CN([C@H](C)CO)C(=O)c2cc(NC(=O)Nc3ccccc3)ccc2O1,inactive: 1.01
13,Cc1ccc(S(=O)(=O)N(C)C[C@H]2Oc3ccc(NS(=O)(=O)c4cccs4)cc3C(=O)N([C@@H](C)CO)C[C@H]2C)cc1,inactive: 1.05
14,C[C@@H]1CN([C@@H](C)CO)C(=O)c2cc(NS(=O)(=O)c3ccc(Cl)cc3)ccc2O[C@@H](C)CCCCO[C@H]1CN(C)C(=O)Nc1cccc2ccccc12,inactive: 1.01
15,COc1ccc(NC(=O)N(C)C[C@@H]2OCCCC[C@H](C)Oc3ccc(NS(=O)(=O)c4ccc(OC)cc4)cc3C(=O)N([C@H](C)CO)C[C@H]2C)cc1,inactive: 0.993
16,C[C@H](CO)N1C[C@H](C)[C@H](CN(C)Cc2ccc3c(c2)OCO3)Oc2c(NS(C)(=O)=O)cccc2C1=O,inactive: 1
17,NCCCC[C@@H]1NC(=O)[C@H]2C[C@@H](C(=O)O)[C@@H](c3cccc(OCCO)c3)N2C1=O,inactive: 1.02
18,C[C@@H]1CN([C@H](C)CO)C(=O)c2cccc(NC(=O)C3CCOCC3)c2O[C@H]1CN(C)Cc1ccc(-c2ccccc2)cc1,inactive: 1
